Source: PubChem BioAssay AID588342 (National Center for Advancing Translational Sciences (NCATS), 2011)
Screen size: about 360,000 compounds; about 25,000 (6.9%) were called active. The inconclusive results got no clear call from the source; some entries with a clear call stand among them for comparison. Calls come from the whole dose curve; as a rule, active = well fitted inhibition curve with a large enough effect; inconclusive = small, poorly fitted or top-dose-only effect; inactive = flat fitted curve, though single readings scatter. Potencies beside an inconclusive call are fits to weak or partial responses and may not hold up.

These compounds were tested against Luciferin 4-monooxygenase (Photinus pyralis) (UniProt P08659) (assay: qHTS profiling assay for firefly luciferase inhibitor/activator using purifed enzyme and Km concentrations of substrates (counterscreen for miR-21 project)). Settings: purified FLuc, luminescence inhibition; series mostly up to 57.5 µM; activity change, negative = inhibition: at the top concentration.
Outline: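 Biochemical qHTS of compounds, final roughly 60 µM downward over six points, against 10 nM purified firefly luciferase using Km concentrations of substrates (10 uM D-luciferin, 10 uM ATP) in Tris acetate pH 7.5 buffer; luminescence output.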
Note: nearly all actives have a fitted effect of over 55% in size.
Potency is the fitted concentration of half-maximal effect; tags give direction and shape of the fitted curve.
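Throughout, for activity change, negative = inhibition: plate controls were vehicle for no effect and reference inhibitor for full effect.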

Sequence of UniProt P08659 (P08659 whole entry, looked up): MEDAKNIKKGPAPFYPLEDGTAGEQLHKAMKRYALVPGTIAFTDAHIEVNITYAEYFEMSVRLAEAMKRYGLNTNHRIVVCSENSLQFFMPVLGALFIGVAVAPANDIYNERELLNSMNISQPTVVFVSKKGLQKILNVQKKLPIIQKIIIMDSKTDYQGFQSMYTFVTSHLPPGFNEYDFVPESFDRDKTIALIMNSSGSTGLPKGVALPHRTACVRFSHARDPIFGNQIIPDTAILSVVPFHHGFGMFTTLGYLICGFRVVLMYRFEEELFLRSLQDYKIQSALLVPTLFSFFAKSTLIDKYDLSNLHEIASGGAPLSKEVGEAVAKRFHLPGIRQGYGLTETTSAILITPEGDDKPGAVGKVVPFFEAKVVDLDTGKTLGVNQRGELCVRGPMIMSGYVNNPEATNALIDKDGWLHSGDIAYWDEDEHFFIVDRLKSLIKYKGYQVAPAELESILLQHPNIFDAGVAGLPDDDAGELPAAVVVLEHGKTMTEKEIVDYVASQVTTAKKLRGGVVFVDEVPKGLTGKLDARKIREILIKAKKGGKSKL

| SMILES | Potency | activity change, negative = inhibition |
| --- | --- | --- |
| O=C(NCCc1nc2ccccc2n1CCCOc1ccc(Cl)cc1)C1CCCCC1 | inconclusive: 26.9 µM [inhibitor, partial curve, poor fit] |  |
| Cc1ccnc2c1ccc1ccccc12 | active: 16.9 µM |  |
| CCOC(=O)CSc1ncc(-c2ccccc2)cn1 | inconclusive: 23.9 µM [inhibitor, single point] |  |
| CCOC(=O)c1c(C)oc2ccc(O)cc12 | inconclusive: 23.9 µM [inhibitor, single point] |  |
| O=C(O)c1ccccc1N=N/C(=N/Nc1cc(S(=O)(=O)O)ccc1O)c1ccccc1 | active: 16.9 µM |  |
| Cc1ccccc1S(=O)(=O)Nc1ncc(C(F)(F)F)cc1Cl | inconclusive: 9.53 µM [inhibitor, partial curve, poor fit] |  |
| COc1ccc(N2CC(NC(=O)c3ccc4ccccc4c3)CC2=O)cc1OC (stereo unspecified) |  | inactive: 3.74% |
| Cc1cccc(C)c1NC(=O)Cn1c(=O)n(Cc2ccco2)c(=O)c2ccc(C(=O)NC3CCCC3)cc21 |  | inactive: 1.61% |
| O=C(O/N=C1\CCS(=O)(=O)c2sccc21)c1ccc(F)cc1 | inconclusive: 1.07 µM [inhibitor, full curve, poor fit] |  |
| CCOC(=O)c1ccccc1-c1cn2cc(Cl)ccc2n1 | active: 15.1 µM |  |
| COC(=O)c1cc(-c2cccc(OC)c2)n[nH]1 | inconclusive: 16.9 µM [inhibitor, partial curve, poor fit] |  |
| CCOc1ccc(OCCOc2ccc(/C=C/C(=O)O)cc2OCC)cc1 | inconclusive: 33.8 µM [inhibitor, partial curve, poor fit] |  |
| Cc1noc(NS(=O)(=O)c2ccc(N/C=C/C(=O)c3ccc(F)cc3)cc2)c1C | active: 21.3 µM |  |
| CCC(C)c1ccc(NC(=S)NN2CCOCC2)cc1 (stereo unspecified) | inconclusive: 21.3 µM [inhibitor, partial curve] |  |
| COc1ccc(C(=O)/C=C2\NCC3c4ccccc4CCN3C2=O)cc1 (stereo unspecified) | active: 6.01 µM |  |
| O=C(O)Cc1ccc(NC(=O)Cc2ccc3ccccc3c2)cc1 |  | inactive: -3.86% |
| O=C(O)/C=C/C(=O)c1ccc2c(c1)CCc1ccccc1-2 | active: 23.9 µM |  |
| C=C(C)C(=O)N1CC2(CC(c3cccc(NC(=O)CC)c3)=NO2)C[C@H]1C(N)=O (stereo partly specified) |  | inactive: -1.16% |
| COc1ccc(C(=O)/C=C/Nc2ccc(NC(C)=O)cc2)cc1OC | inconclusive: 26.9 µM [inhibitor, single point] |  |
| O=c1/c(=C/c2ccc(O)c([N+](=O)[O-])c2)sc2nc3ccccc3n12 | active: 6.75 µM |  |
| CC(=O)Cn1cnc2scc(-c3ccc(C)c(C)c3)c2c1=O |  | inactive: -1.21% |
